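Following 48 hours of exposure in 96-well plates, responses at five concentrations were used to interpolate endpoints linearly. GI50 = concentration required for 50% inhibition of growth.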 Active and inactive are the calls of the source. Rule as the data show it: active = GI50 up to about 1.1 µM and inactive = higher.
What follows are compounds tested on NCI-H322M (assay: DTP human tumour cell line panel, 48 h).

| SMILES | GI50 |
| --- | --- |
| O=C1c2ccccc2C(=O)N1CCCCCCNOCCCN1C(=O)c2ccccc2C1=O | inactive: > 100 µM |
| CC1=NN(c2nc(N)nc(C/C(N)=N/O)n2)C(C)(C)C1 | inactive: > 100 µM |
| Cc1nnc2n(c1=O)CCCN2C | inactive: > 100 µM |
| CNC(=O)CCCN(C)C(=O)CCCCC(=O)N(C)C | inactive: > 53.8 µM |
| O=[N+]([O-])c1ccc(Cl)c(C2CC(c3cccc4ccccc34)=Nc3ccccc3[S+]2[O-])c1 (stereo unspecified) | inactive: 33.3 µM |
| C=C1CCC2CC1C(C(=O)c1c[nH]c3ccccc13)=NC2(C)C (stereo unspecified) | inactive: > 100 µM |
| O=C(NCCNCCCNC(=O)c1cc(-c2ccccc2)nc2ccccc12)c1cccc(OCc2ccccc2)c1OCc1ccccc1 | inactive: 1.85 µM |
| OC1OC2COC(c3ccccc3)OC2C(O)C1O (stereo unspecified) | inactive: > 100 µM |
| ClC(Cl)[Si]12OCCN(CCO1)CCO2 | inactive: > 100 µM |
| O=C(Cc1csc(N/N=C2\C(=O)Nc3ccccc32)n1)Nc1ccccc1 | inactive: 39.3 µM |
| O=C(CCc1cc(O)ccc1O)OCCc1ccccc1 | inactive: > 100 µM |
| CSCSCC(CO)NC(=O)/C=C\c1c(C)[nH]c(=O)[nH]c1=O (stereo unspecified) | inactive: 3.09 µM |
| CC(=O)NC1C(OCc2ccccc2)OC(CO)C(O)C1OCC(=O)NC(C)C(=O)NC(CCC(=O)NCCCCNc1ccc([N+](=O)[O-])c2[nH]c3ccccc3c(=O)c12)C(N)=O (stereo unspecified) | inactive: 61.2 µM |
| O=c1c2cc(I)ccc2nc(SCc2nncs2)n1Cc1ccccc1 | inactive: 20.4 µM |
| S=C1CSc2c(ccc3ccccc23)N1 | inactive: > 100 µM |
| COC(=O)c1ccc2c(c1)CC1(C2)Cc2cc3c(cc2C1)CCC3 | inactive: > 100 µM |
| CCOC(=O)c1c(C)n(Cc2ccccc2)c(=O)c2ccccc2c(=O)c2c(=O)ccc(=O)c1=2 | inactive: > 100 µM |
| CC(C)c1cc(OCC(O)CO)cc(C(C)C)c1 (stereo unspecified) | inactive: > 100 µM |
| c1ccc2c(c1)CCCN1CCc3ccccc3C21 (stereo unspecified) | inactive: 70.8 µM |
| CC1=Nc2c(ccc3c2C(=O)c2ccccc2C3=O)NC(c2ccncc2)C1 (stereo unspecified) | inactive: 28.7 µM |
| CN(C)CCNc1ccc([N+](=O)[O-])c2nc3ccccc3c(N)c12 | active: 0.698 µM |
| CN1C(=O)C2CCC(=O)N2c2cccnc21 (stereo unspecified) | inactive: > 100 µM |
| C#CC1(OC(C)=O)CCC2C3CC=C4C=C(OC(C)=O)CCC4(C)C3CCC21C (stereo unspecified) | inactive: 31.6 µM |

| SMILES | GI50 |
| --- | --- |
| Cc1cn(C2C=CC(=O)C(C)O2)c(=O)[nH]c1=O (stereo unspecified) | inactive: 19.3 µM |
| O=C1CCCCC(=O)OC2(CCCCC2=O)CC1 (stereo unspecified) | inactive: > 100 µM |
| CC1C2(C)OC(=N)C(C#N)(C(c3ccccc3)O2)C1(C#N)C#N (stereo unspecified) | inactive: 72.1 µM |
| Cn1cccc1-c1ccc(-c2ccc(CO)[se]2)[se]1 | inactive: 25.9 µM |
| CC(=O)OCC1OC(n2c(C)cc(C)c(C#N)c2=S)C(OC(C)=O)C(OC(C)=O)C1OC(C)=O (stereo unspecified) | inactive: > 100 µM |
| N#Cc1nc(-c2ccccn2)oc1N | inactive: > 100 µM |
| CN(C)CCNC(=O)c1ccc(NCCCN(C)CCCNc2ccc3c(=O)n(CCN(C)C)c(=O)n4c5ccccc5c(=O)c2c34)c2c(O)c3ccccc3nc12 | active: < 0.01 µM |
| COc1cc2c(cc1OC)C(C#N)(Cc1ccccc1)N(C(=O)c1ccccc1)C=C2 (stereo unspecified) | inactive: > 100 µM |
| CN(Cc1cnc2nc(N)nc(N)c2n1)c1ccc(C(=O)NC(CCC(=O)O)C(=O)O)cc1C(F)(F)F (stereo unspecified) | inactive: 66.4 µM |
| O=C(O)C1C(C(=O)O)C(C(=O)O)C1C(=O)O (stereo unspecified) | inactive: > 100 µM |
| CC1(C)C(=O)/C=C\C(=O)C(C)(C)C(=O)/C=C\C(=O)C(C)(C)C(=O)/C=C\C(=O)C(C)(C)C(=O)/C=C\C1=O | inactive: > 61.5 µM |
| O=c1[nH]c(=O)n(C2CC(O)C(CO)O2)cc1/N=N/NCCc1ccccc1 (stereo unspecified) | active: < 0.01 µM |
| Cc1c2cccc-2c(OCCOC(=O)n2ccnc2)cc2c1[nH]c1ccccc12 | inactive: 11.1 µM |
| CCCCCCCCCCCCCC[C@@H](O)[C@H]1CC[C@H]([C@H]2CC[C@H]([C@H](O)CCCCCC[C@@H](O)CC3=C[C@H](C)OC3=O)O2)O1 | inactive: > 25 µM |
| O=C1CCC2(c3ccccc3)Nc3ccc(Cl)cc3N12 (stereo unspecified) | inactive: > 100 µM |
| CC1CC(NN(C)C)C2(C(N)=O)C(N)=NC(=O)C12C#N (stereo unspecified) | inactive: > 100 µM |
| COC(CN1C(=O)c2cccc3cccc(c23)C1=O)OC | inactive: 97.3 µM |
| COC(=O)CCC1(CCC(=O)OC)CCCCCCC(CCC(=O)OC)(CCC(=O)OC)C(=O)C1=O | inactive: > 100 µM |
| CC1=C(N2CC2)C(=O)c2nc3n(c2C1=O)CCC3O (stereo unspecified) | active: 0.38 µM |
| Cc1ccn2c(=O)cc(-c3ccccc3)nc2c1 | inactive: > 100 µM |
| Cc1cc(C)nc(NS(=O)(=O)c2ccc(Nc3c4ccccc4nc4c(C(=O)NC(CO)(CO)CO)cccc34)cc2)n1 | inactive: 35.5 µM |
| CC(=O)OCC(=O)OC[C@H](OCc1ccccc1)[C@@H]1[C@H](OC(C)=O)C(=O)N1Cc1ccccc1 | inactive: > 100 µM |
| S=C1Nc2cnc3ccccc3c2SC1c1ccccc1 (stereo unspecified) | inactive: > 100 µM |

| SMILES | GI50 |
| --- | --- |
| COC(=O)CC(C(C(=O)OC)C(=O)OC)N1C(=O)OC(c2ccccc2)C1c1ccccc1 (stereo unspecified) | inactive: > 100 µM |
| CSC(=N/N=C(\C)c1ccc(S(=O)(=O)N(C)c2ccccc2)cc1)SC | inactive: > 67.9 µM |
| C#CCOC(=O)C(N)C(C)O (stereo unspecified) | inactive: > 100 µM |
| COc1ccc(/C=c2/s/c(=C(\C#N)c3nc4ccccc4[nH]3)n(-c3ccccc3)c2=O)cc1 | inactive: > 63.7 µM |
| CC(=O)OCC(=O)[C@@]12OC(C)(C)O[C@@H]1C[C@H]1[C@@H]3CC=C4C[C@@H](O)CC[C@]4(C)[C@H]3CC[C@@]12C | inactive: > 100 µM |
| CN(C)CCNC(=O)c1ccc(C(=O)NCCN(C)C)c2nc3ccccc3cc12 | active: 0.656 µM |
| COc1cc2cc(OC(C)=O)c3cc4c(cc3c2c(OC)c1OC)OCO4 | inactive: > 100 µM |
| COC(=O)/C(=N\Nc1nnc(C)n1N)C(C#N)c1ccc(Cl)cc1 (stereo unspecified) | inactive: > 100 µM |
| C[C@@H](O)C(=O)N1[C@@H]2CC3CC[C@]2(CS1(=O)=O)C3(C)C | inactive: > 100 µM |
| C=CCN1C(=O)C(=O)N(CC=C)C(=O)C1=O | inactive: > 100 µM |
| COc1cc(/C=C2/SC(c3ccccc3)N(c3cccc(Cl)c3)C2=O)cc(OC)c1OC (stereo unspecified) | inactive: 69.3 µM |
| C=CCN1C(=O)/C(=C/c2ccc(C)cc2)N=C1SC1OC(COC(C)=O)C(OC(C)=O)C(OC(C)=O)C1OC(C)=O (stereo unspecified) | inactive: 69.3 µM |
| COc1ccc(-c2c3ccccc3c(-c3ccc(OCCBr)cc3)c3ccccc23)cc1 | inactive: > 100 µM |
| CC1=C(C(=O)Nc2cc(=O)n(C)c(=O)n2C)C(c2cccc([N+](=O)[O-])c2)C(C(=O)Nc2cc(=O)n(C)c(=O)n2C)=C(C)N1 | inactive: > 100 µM |
| Cc1ccc2[nH]c(=N/c3ccccc3C)/c(=N\c3ccccc3C)[nH]c2c1 | inactive: 38.5 µM |
| CCCCn1c(-c2ccccc2)cs/c1=N\N=C1C=C(C(C)(C)C)C(=O)C(C(C)(C)C)=C1 | inactive: > 100 µM |
| Cc1ccc(S(=O)(=O)OC(c2ccc(Cl)cc2Cl)C2OC(=O)c3ccccc32)cc1 (stereo unspecified) | inactive: > 100 µM |
| Oc1ccc(-c2nc3ccc4ccccc4c3c3c2CCCC3)c(O)c1 | inactive: 37.5 µM |
| C1CCNCC1.O=C1NC(=S)N/C1=C/c1ccccc1O | inactive: > 100 µM |
| CN(C)S(=O)(=O)c1nc(Cl)c2nc[nH]c2n1 | inactive: > 100 µM |
| COc1cc2ccnc([C@@H](OC(=O)c3ccccc3)c3ccc(OC)c(OC)c3OC)c2cc1OC | inactive: 73.6 µM |
| CCOC(=O)C1S/C(=N\c2ccc(Cl)cc2Cl)N=C1C (stereo unspecified) | inactive: > 100 µM |
| COc1ccc(-c2nc(N)c(C#N)c3c2CCS(=O)(=O)c2ccc(C)cc2-3)cc1OC | inactive: 39.2 µM |

| SMILES | GI50 |
| --- | --- |
| NC(=O)NC1C(C(N)=O)N(Cc2ccccc2)C(=O)N1Cc1ccccc1 (stereo unspecified) | inactive: > 100 µM |
| NNC(=O)CNC(=O)c1ccc(Cl)cc1Cl | inactive: > 100 µM |
| O=C(CC1C(=O)Nc2ccccc2[S+]1[O-])Nc1cc(Cl)ccc1Cl (stereo unspecified) | inactive: > 100 µM |
| C/C(=N\O)c1ccc(OCc2cc(C(F)(F)F)cc(C(F)(F)F)c2)cc1 | inactive: > 100 µM |
| COc1cc(C(=O)C/C(CCC(=O)Nc2ccccc2[N+](=O)[O-])=N\NC(N)=O)ccc1O | inactive: > 100 µM |
| O=C(NCCNCCO)c1cccc2ccc(-c3ccccc3)nc12 | inactive: 5.4 µM |
| Cc1ccccc1C(O)(c1nccn1C)c1nccn1C | inactive: > 100 µM |
| CCOC(=O)[C@@]12CCC(C1=O)[C@](C)(O)C[C@@H]2c1ccccc1 | inactive: 85.3 µM |
| CCC(c1nc2ccccc2c(=O)n1NC(=O)C(C)(C)C)C1(O)CCCCC1 (stereo unspecified) | inactive: > 100 µM |
| CCN(CC)CCNc1ccc2ncn3c4cc(O)ccc4c(=O)c1c23 | inactive: 2.47 µM |
| CON(C)C(=O)[C@H]1C[C@@]1(C)CO | inactive: > 100 µM |
| CN(C)c1ccc(/C=C2\N=C(NNc3ccccc3)NC2=O)cc1 | inactive: 35.6 µM |
| Cc1cc(Cl)ccc1NC(=O)C(=O)Cc1nc2ccc(C(=O)c3ccccc3)cc2nc1O | inactive: > 100 µM |
| CCOC(=O)/C=C(\C(=O)OCC)n1ccc(=O)n(Cc2cn(COCCOC(C)=O)nn2)c1=O | inactive: > 100 µM |
| Cc1ccccc1NC(=O)C(=O)CC(=O)c1sc(Nc2ccccc2[N+](=O)[O-])nc1C | inactive: 41.5 µM |
| CCN(CC)CCSc1c2cc(OC)ccc2nc2ccc(OC)cc12 | inactive: 12.7 µM |
| COc1cc2c3c(n(C)c(=O)c2cc1OC)-c1cc2c(cc1/C3=C\CCCCl)OCO2 | inactive: 40.6 µM |
| O=C([C@H](O)[C@@H](O)c1cccc(Cl)c1)C12CC3CC(CC(C3)C1)C2 | inactive: 2.3 µM |
| CN(C)c1ccc(/C=C2\CCc3ccccc3C2=O)cc1Br | inactive: > 100 µM |
| COc1nc(N=P(c2ccccc2)(c2ccccc2)c2ccccc2)cc(=O)n1C | inactive: > 100 µM |
| CN(C)c1nc2n(CCO)ccnc-2c(=O)n1 | inactive: > 100 µM |
| CCOC(=O)c1sc2c(c1OC(=O)c1cccs1)c(=O)n(-c1ccccc1)c(=S)n2-c1ccccc1 | inactive: 23.2 µM |

From ChEMBL document CHEMBL1201862, “PubChem BioAssay data set” (2004)
